{
  "source": "PubChem BioAssay AID485344",
  "about": "(National Center for Advancing Translational Sciences (NCATS), 2010)",
  "note": "Among all 340,000 compounds or so, about 6,900 (2%) were called active. Cut-off read from the data, not from the text of the source: active = inhibition above about 30%; inactive = below that, where a call was filed. The entries are a selection whose mix differs from that of the whole data set. Where no call is shown, the source filed none.",
  "data": [
    {"target": "D(2) dopamine receptor (Homo sapiens) (UniProt P14416)", "sequence (P14416 whole entry, looked up)": "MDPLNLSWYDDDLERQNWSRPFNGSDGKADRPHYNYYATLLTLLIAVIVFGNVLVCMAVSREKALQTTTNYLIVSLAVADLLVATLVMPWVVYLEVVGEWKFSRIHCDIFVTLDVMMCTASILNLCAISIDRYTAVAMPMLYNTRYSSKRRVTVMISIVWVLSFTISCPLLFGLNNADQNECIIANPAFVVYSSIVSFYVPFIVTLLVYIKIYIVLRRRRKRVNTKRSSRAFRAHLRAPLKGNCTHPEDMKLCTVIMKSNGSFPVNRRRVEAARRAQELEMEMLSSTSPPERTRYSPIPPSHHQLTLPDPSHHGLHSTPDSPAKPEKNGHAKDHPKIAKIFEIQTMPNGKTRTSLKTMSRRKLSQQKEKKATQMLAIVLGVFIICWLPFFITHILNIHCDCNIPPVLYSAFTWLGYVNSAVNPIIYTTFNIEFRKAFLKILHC", "assay": "HTS Assay for Allosteric Antagonists of the Human D2 Dopamine Receptor: Primary Screen for Antagonists; note: 0% is about no effect", "conditions": "HEK293 TREx D2 cells, calcium flux, dopamine EC80; at 10 µM; stronger effect = higher value", "outline": "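Tetracycline-induced HEK293 T-REx cells expressing D2 force-coupled to calcium signalling were dye-loaded, exposed to compound for 180 s, then challenged with an EC80 of dopamine; calcium flux was followed kinetically for a further 180 s.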", "values": [
      {"compound": "CCOc1ccc(/C=C(\\C#N)c2nc(-c3cc4ccccc4oc3=O)cs2)c(OCC)c1", "inhibition": "0.701%"},
      {"compound": "COc1ccccc1NC(=O)c1c(NCc2sccc2C)sc2c1CCCCC2", "inhibition": "8.65%"},
      {"compound": "CN(C(=O)Cn1c(=O)n(CCCS(=O)(=O)C2CCCCC2)c(=O)c2ccccc21)c1ccccc1", "inhibition": "-14.7%"},
      {"compound": "CC(C)CN1C(=O)C(=O)N(CC(=O)NC(C)CCc2ccccc2)C1=O", "note": "(configuration not stated)", "inhibition": "active: 52%"},
      {"compound": "CN(C(=O)c1cc(-c2ccccc2O)on1)c1ccccc1", "inhibition": "16.1%"},
      {"compound": "COc1ccc(S(=O)(=O)N2CCC(c3ccncc3)CC2)cc1Cl", "inhibition": "9.05%"},
      {"compound": "CCCCOc1c(Cl)cc(C(=O)N(Cc2ccc(C)o2)C2CCS(=O)(=O)C2)cc1Cl", "note": "(configuration not stated)", "inhibition": "-27.7%"},
      {"compound": "Cc1cc(C)c2oc(C(=O)N(Cc3ccc(F)cc3)C3CCS(=O)(=O)C3)cc(=O)c2c1", "note": "(configuration not stated)", "inhibition": "-1.94%"},
      {"compound": "C/C(N)=C(/C#N)C(=O)CSc1nnc(Nc2ccccc2)s1", "inhibition": "active: 48.6%"},
      {"compound": "CSc1ccc(CCNc2ncnc3onc(C)c23)cc1", "inhibition": "-12.2%"},
      {"compound": "COc1ccc(NC(=O)C2=C(C)Nc3nc(SCc4ccccc4C)nn3C2c2ccc(Br)cc2)cc1", "note": "(configuration not stated)", "inhibition": "16.3%"},
      {"compound": "Cc1cccc(NC(=O)C2CCN(S(=O)(=O)c3cccc4nsnc34)CC2)c1C", "inhibition": "-12%"},
      {"compound": "Cc1occc1C(=O)Nc1c(F)cc(F)cc1Br", "inhibition": "active: 34%"},
      {"compound": "Cc1cc(C)cc(NC(=O)CSc2nccn2-c2ccccc2)c1", "inhibition": "4.03%"},
      {"compound": "Cc1cc(Br)ccc1NC(=O)c1cc2c(=O)n(C)c3cc(Cl)ccc3c2s1", "inhibition": "15.5%"},
      {"compound": "O=C(NC1CC(=O)N(c2ccccc2)C1)C1CCCCC1", "note": "(configuration not stated)", "inhibition": "0.0054%"},
      {"compound": "Cc1cccc2nc(-c3cccnc3)c(Nc3ccc(C(C)C)cc3)n12", "inhibition": "-8.76%"},
      {"compound": "Cc1ccc(NC(=O)OCCN2CCN(Cc3ccccc3)CCC2=O)cc1", "inhibition": "active: 42.7%"},
      {"compound": "CC(CC(=O)NCc1ccc(Cl)cc1)CC1=NS(=O)(=O)c2ccccc2N1", "note": "(configuration not stated)", "inhibition": "7.9%"},
      {"compound": "O=C(Cn1cc(SCc2ccc(C(F)(F)F)cc2)c2ccccc21)N1CCCCC1", "inhibition": "-16.1%"},
      {"compound": "Cc1cccc(Nc2nnc(-n3nc(C)cc3C)c3ccccc23)c1", "inhibition": "-6.61%"},
      {"compound": "CCc1cccc2c(-c3ccccc3)nc(SCC(=O)Nc3ccccc3)nc12", "inhibition": "-4.74%"},
      {"compound": "COc1ccc(N2CCN(CCCNC(=O)C3COc4ccc(OC)cc4C3)CC2)cc1", "note": "(configuration not stated)", "inhibition": "6.35%"},
      {"compound": "COc1ccc(-c2cc(C)no2)cc1S(=O)(=O)NCc1ccc(OC(C)C)cc1", "inhibition": "5.11%"},
      {"compound": "COc1cc(NC(=O)c2cc(-c3ccc4c(c3)OCO4)on2)cc(OC)c1OC", "inhibition": "18.5%"},
      {"compound": "COc1ccc(S(=O)(=O)c2cn(C)c3cc(N4CCCCC4)c(F)cc3c2=O)cc1", "inhibition": "3.23%"},
      {"compound": "CC(=O)c1ccc(N2CCN(c3nc4c(S(=O)(=O)c5ccccc5)nnn4c4ccc(Cl)cc34)CC2)cc1", "inhibition": "-3.01%"},
      {"compound": "Cc1c(-c2nsc(NC(=O)c3ccc(Cl)cc3)n2)nnn1-c1ccc(C(C)C)cc1", "inhibition": "7.16%"},
      {"compound": "COc1ccc(NC(=O)c2cnn(-c3ccc(C)cc3)c2-n2cccc2)cc1Cl", "inhibition": "-1.91%"},
      {"compound": "Cc1ccc(-c2cc(N)n3nc(-c4ccc(C)cc4)cc3n2)cc1", "inhibition": "9.81%"},
      {"compound": "CCOC(=O)c1noc2ncnc(Nc3ccc(C)c(F)c3)c12", "inhibition": "1.21%"},
      {"compound": "CCOC(=O)c1noc2ncnc(N(CCC(=O)OC)c3ccccc3)c12", "inhibition": "25.3%"},
      {"compound": "COc1ccc(OC)c(C2CC(=O)c3c([nH]c(C(=O)OC4CCC(C)CC4)c3C)C2)c1", "note": "(configuration not stated)", "inhibition": "3.47%"},
      {"compound": "O=C(C[n+]1cc(-c2ccccc2)n2c1CCC2)Nc1nc(-c2ccc(F)cc2)cs1", "inhibition": "active: 75.6%"},
      {"compound": "Cc1ccc2c(c1)sc1nc(=O)n(-c3ccc(Cl)cc3)c(=O)n12", "inhibition": "0.0825%"},
      {"compound": "CN1CCN(CCCNC(=O)Cn2c(-c3cccs3)cc3ccccc32)CC1", "inhibition": "13.1%"},
      {"compound": "CCOC(=O)c1ccc(NC(=O)c2c(N3CCCC3=O)c3cc(OC)ccc3n2C)cc1", "inhibition": "0.414%"},
      {"compound": "Cc1ccc(C)c(N2CCN(C(=O)Cn3ncc4ccsc4c3=O)CC2)c1", "inhibition": "3.39%"},
      {"compound": "Cc1cc2oc(C(=O)N(Cc3ccccc3F)C3CCS(=O)(=O)C3)c(C)c2cc1Cl", "note": "(configuration not stated)", "inhibition": "2.34%"},
      {"compound": "Cc1c(Cl)cccc1NC(=O)CN1C(=O)COc2ccc(S(=O)(=O)N3CCOCC3)cc21", "inhibition": "0.33%"},
      {"compound": "CC1=C(C(=O)OCC2CCCCC2)C(c2cccc(Cl)c2Cl)CC(=O)N1", "note": "(configuration not stated)", "inhibition": "5.47%"},
      {"compound": "Cc1ccc(C2CC(=O)Nc3cc4c(cc32)OCCO4)cc1", "note": "(configuration not stated)", "inhibition": "-15.3%"},
      {"compound": "CC(=O)N1CCCC1c1nc2ccccc2n1Cc1ccccc1", "note": "(configuration not stated)", "inhibition": "10.7%"},
      {"compound": "CC1CCCN(CCOCCOc2ccc(Br)cc2Cl)C1", "note": "(configuration not stated)", "inhibition": "active: 51.6%"},
      {"compound": "CCOc1ccc(C(=O)c2oc3ccccc3c2NC(=O)Cc2coc3cc(C)cc(C)c23)cc1", "inhibition": "-0.242%"},
      {"compound": "CCc1ccc(Cn2c(CNS(=O)(=O)c3ccc(F)c(Cl)c3)nc3cccnc32)cc1", "inhibition": "21%"},
      {"compound": "CCCSc1nnc2c(n1)OC(c1sccc1C)Nc1ccccc1-2", "note": "(configuration not stated)", "inhibition": "6.34%"},
      {"compound": "CCc1cccc(NC(=O)c2cc3c(=O)n(Cc4ccc(OC)cc4)ccc3nc2C)c1", "inhibition": "11.7%"},
      {"compound": "Cc1ccc(N2C(=O)N(CC(=O)C(C)(C)C)c3ccccc3S2(=O)=O)cc1C", "inhibition": "5.15%"},
      {"compound": "CCOc1ccc(CCNC(=O)c2ccc(Nc3nc4ccccc4n4nnnc34)cc2)cc1OCC", "inhibition": "9.82%"},
      {"compound": "CCOc1ccc(-c2cc(C(=O)N3CCN(S(=O)(=O)c4cc(Cl)ccc4OC)CC3)[nH]n2)cc1", "inhibition": "7.42%"},
      {"compound": "CCC(CC)C(=O)N(c1ccc(F)cc1)C1C=CS(=O)(=O)C1", "note": "(configuration not stated)", "inhibition": "active: 72.6%"},
      {"compound": "CCCCOC(=O)c1ccc(NC(=O)Cn2nnc3sc4c(c3c2=O)CCCC4)cc1", "inhibition": "-2.61%"},
      {"compound": "O=C(NCc1cccs1)c1ccc(Cn2c(SCc3cccc(F)c3)nc3cccnc32)cc1", "inhibition": "-10.5%"},
      {"compound": "COc1ccccc1-c1nc2c(c(SCC(=O)Nc3c(C)cc(C)cc3C)n1)Cc1c(CO)cnc(C)c1O2", "inhibition": "-16.4%"},
      {"compound": "CCC(=O)N1CCc2cc(S(=O)(=O)CCC(=O)NCc3ccc(C)cc3)ccc21", "inhibition": "10.3%"},
      {"compound": "CCOC(=O)c1c(NC(=O)c2cc3nc(-c4ccc(OC)cc4)cc(C(F)(F)F)n3n2)sc2c1CCC(C)C2", "note": "(configuration not stated)", "inhibition": "16.4%"},
      {"compound": "CCc1cccc(NC(=O)C(Cc2ccccc2)NS(=O)(=O)c2ccc3c(c2)oc(=O)n3C)c1", "note": "(configuration not stated)", "inhibition": "18.4%"},
      {"compound": "CCOC(=O)c1ccc(NC(=O)c2oc(=O)c3ccccc3c2-c2ccccc2)cc1", "inhibition": "14.3%"},
      {"compound": "COc1ccc(-n2c(N)c(-c3nc4ccccc4n3C)sc2=S)cc1", "inhibition": "active: 33.7%"},
      {"compound": "Cc1cccc(Cn2c(=O)n(CC3CCC(C(=O)N4CCOCC4)CC3)c(=O)c3sccc32)c1", "note": "(configuration not stated)", "inhibition": "6.55%"},
      {"compound": "COc1ccc(-c2cc(C)no2)cc1S(=O)(=O)NC(C)C", "inhibition": "0.766%"}
    ]}
  ]
}
